In all, about 410,000 compounds went through this assay and about 6,400 (1.6%) were called active. Inconclusive means that the source gave no clear call. Such entries were picked first, then a sample of the others. Calls follow the shape of the dose curve; as a rule, active = well fitted inhibition curve with a large enough effect; inconclusive = small, poorly fitted or top-dose-only effect; inactive = no such curve, though single readings can be large or run the other way. A potency beside an inconclusive call is a rough fit, not a confirmed value.
Each compound was assayed against Glucagon-like peptide 1 receptor (Homo sapiens) (UniProt P43220) (assay: qHTS of GLP-1 Receptor Inverse Agonists (Inhibition Mode)). Conditions: HEK293 GLP-1R CRE-luciferase, luminescence, 24 h, GLP-1R form is constitutively active; activity change, negative = inhibition: at 38.3 µM (top of the series) unless noted.
UniProt P43220, sequence (P43220 whole entry, looked up): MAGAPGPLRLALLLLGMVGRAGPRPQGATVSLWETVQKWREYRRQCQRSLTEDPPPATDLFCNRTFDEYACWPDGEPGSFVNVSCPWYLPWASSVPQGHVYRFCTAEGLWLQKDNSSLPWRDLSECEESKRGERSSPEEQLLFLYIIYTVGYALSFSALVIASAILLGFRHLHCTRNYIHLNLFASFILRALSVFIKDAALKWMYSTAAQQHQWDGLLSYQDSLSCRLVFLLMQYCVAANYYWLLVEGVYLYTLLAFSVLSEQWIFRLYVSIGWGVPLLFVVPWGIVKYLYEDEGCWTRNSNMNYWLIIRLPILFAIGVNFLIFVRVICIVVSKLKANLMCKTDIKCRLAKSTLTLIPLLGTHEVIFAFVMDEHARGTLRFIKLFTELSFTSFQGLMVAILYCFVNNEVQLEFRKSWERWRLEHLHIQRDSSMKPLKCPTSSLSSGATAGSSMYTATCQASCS
In short: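 Readout was luciferase luminescence, measured 12 min after detection reagent at room temperature. Beforehand, GLP-1R reporter HEK293 cells had sat 12 h, then received compounds for 24 hr at 37 deg C.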
% is scaled to controls: 0 for no effect and ±100 for the full control effect; potency is read from the fitted curve at half-maximal effect; tags tell the direction and shape of the fitted curve.
Also: nearly all actives have a fitted effect of over 55% in size.

Potency, inactive:
CCOC(=O)C1(C)CCN1C(=O)c1cccs1 (stereo unspecified), Cc1ccc(-c2nn(-c3ccccc3)cc2/C=N/NS(=O)(=O)c2ccccc2)cc1, COc1cccc(CC(NC(C)=O)C(=O)NC2CCN(S(=O)(=O)c3ccc(C)cc3)CC2)c1OC (stereo unspecified), COc1ccc(OC)c(S(=O)(=O)N2CC=C(c3c(C)n(CC(=O)N4CCCC4)c4ccccc34)CC2)c1, COc1ccc(CN2C(=O)C(CC(=O)NCc3cccc4ccccc34)CC(C(=O)N3CCOCC3)=C2C)cc1 (stereo unspecified), COc1ccc(N2CCN(C(=O)CS(=O)(=O)c3cccc4nsnc34)CC2)cc1, CC(=O)N1CCc2cc(Br)cc(S(=O)(=O)N3CCN(c4cccc(C)c4)C(C)C3)c21 (stereo unspecified), Cc1nn(C2CC(O)C(O)C(CO)O2)c(=O)[nH]c1=O (stereo unspecified), CC1CC(=O)N(c2ccc(C(C)C)cc2)C(=O)C1, CCCCN1CCc2nc(N3CCN(C)CC3)ncc2C1

Potency, inconclusive:
CC(C)CN1CCN(Cc2cnc(-c3ccc(Cl)cc3)nc2)CC1CCO (stereo unspecified) 17.8 µM [inhibitor, partial curve, poor fit], Cc1cc(C)n(CC(O)CN(c2ccccc2)S(=O)(=O)c2ccc3ccccc3c2)n1 (stereo unspecified) 7.94 µM [inhibitor, partial curve, poor fit], CN(CC(=O)Nc1ccc(Cl)cc1)C(=O)CCc1ccccc1 10 µM [inhibitor, partial curve], CC(Oc1cccc(Cl)c1)C(=O)Nc1ccc(N2CCOCC2)cc1N1CCOCC1 (stereo unspecified) 12.6 µM [inhibitor, partial curve, poor fit], C/C(=N\NC(=O)c1ccc2c(c1)OCCO2)c1ccccc1 10 µM [inhibitor, single point], Cc1ccc([C@@H]2CC=C(C(=O)O)[C@H](c3cccc(F)c3)N2S(=O)(=O)c2ccccc2C)cc1 11.2 µM [inhibitor, partial curve], COc1ccc(NS(=O)(=O)c2cc(NC(=O)C3CC3)ccc2N2CCCCC2)cc1 6.31 µM [inhibitor, partial curve, poor fit], CC(C)Cc1cc(C(=O)Nc2ccccc2)c2ccccc2n1 11.2 µM [inhibitor, partial curve], CC1CCN(S(=O)(=O)c2cn(CC(=O)N3CCN(c4cccc(C(F)(F)F)c4)CC3)cn2)CC1 10 µM [inhibitor, partial curve], COc1ccccc1OCc1ccc(C(=O)N2N=C(C(F)F)CC2(O)C(F)F)o1 (stereo unspecified) 28.2 µM [inhibitor, single point], Cc1ccccc1NC(=O)CN(c1ccc(Cl)cc1Cl)S(=O)(=O)c1ccccc1 14.1 µM [inhibitor, single point], CSCC(C)N1CCC(n2nccc2NC(=O)c2ccc3c(c2)OCO3)CC1 (stereo unspecified) 28.2 µM [inhibitor, partial curve, poor fit], C=CCN1C(=O)CSc2ccc(C(=O)NCCC3=CCCCC3)cc21 28.2 µM [inhibitor, single point], CN1CCN(c2ccc(Cl)cc2NC(=O)c2ccc(S(=O)(=O)N3CCCCCC3)cc2)CC1 5.62 µM [inhibitor, partial curve], CCOC(=O)C1(Cc2ccccc2C(F)(F)F)CCN(C2CCN(C(C)C)CC2)CC1 2.51 µM [inhibitor, partial curve, poor fit], CCCCNC(=O)[C@]1(C)CCC[C@@]2(C)C3CC[C@@]4(C)C[C@]3(CCC21)CC4=O (stereo partly specified) 22.4 µM [inhibitor, single point], C=CCc1cccc(/C=N/NC(=O)c2ccc3nc[nH]c3c2)c1O 28.2 µM [inhibitor, single point], CCN1C(=O)[C@H]2[C@@H](c3ccc(C)cc3)N3C(=O)N(c4ccc(C(F)(F)F)cc4)C(=O)[C@@]3(CC(C)C)[C@H]2C1=O 10 µM [inhibitor, partial curve, poor fit], CC(NC(=S)NC1CCCCC1)c1ccccc1 (stereo unspecified) 28.2 µM [inhibitor, single point], CN(C)c1ccc(CNC(=O)CCCn2ccc3cc(S(=O)(=O)N4CCCC4)ccc32)cc1 28.2 µM [inhibitor, single point], COc1cc(NC(=O)C(C)Oc2ccccc2)cc(OC)c1 (stereo unspecified) 8.91 µM [inhibitor, partial curve, poor fit], O=S(=O)(c1cccc(F)c1)N1CCN(Cc2cc3c(cc2Br)OCCO3)CC1 28.2 µM [inhibitor, single point], COc1ccc(Cl)cc1NC(=O)c1cc(C)nn1-c1ccccc1 28.2 µM [inhibitor, single point], CCc1ccc(CCC(=O)N2CCN(S(=O)(=O)c3ccc(Br)cc3)CC2)cc1 12.6 µM [inhibitor, single point], C=C(C)COc1ccc(-c2nc(N)ncc2-c2ccc(Br)cc2)c(O)c1 28.2 µM [inhibitor, single point], CCCOc1ccc(S(=O)(=O)NCCCN2CCOCC2)c2ccccc12 10 µM [inhibitor, partial curve, poor fit], CCCCCC1CCC(c2n[nH]c(=S)n2C)CC1 (stereo unspecified) 2.82 µM [inhibitor, full curve, poor fit], O=c1oc2ccccc2n1Cc1cccc(C(F)(F)F)c1 10 µM [inhibitor, partial curve, poor fit], COc1cc(F)ccc1-c1csc(C(C)(O)c2ccc(F)c(F)c2)n1 (stereo unspecified) 25.1 µM [inhibitor, single point]

Potency, active:
CCN(CC)CCNCC(O)(c1ccc(Cl)cc1)c1ccc(Cl)cc1 8.91 µM

Activity change, negative = inhibition, inactive:
O=C(C[n+]1ccccc1)N/N=C/c1ccc(F)cc1 4.17% [at 7.66 µM]
